# Data from US10195156B2, “Compounds and compositions for intracellular delivery of agents” (ModernaTX, Inc., priority 2015, dated 2019).
# At least one read-out could not be matched to a standard name with certainty.
# Tests used:
# Type in all cases: in vivo
# [1] = test system: hEPO mRNA expression; test: Expression of hEPO in CD-1 mice; conditions: Table 7e, 0.5 mpk
# Text: FIG. 12 is a set of graphs illustrating hEPO expression levels in CD-1 mice dosed with compounds of the disclosure, compared to MC3. PBS is used as control. […] In graphs A-C numbers 1-14 refer to compositions containing the following: 1: Compound 73, 2: Compound 80, 3: Compound 70; 4: Compound 81; 5: Compound 69; 6: Compound 82; 7: Compound 83; 8: Compound 62; 9: Compound 84; 10: Compound 85; 11: Compound 86; 12: Compound 87; 13: MC3; 14: PBS.
# FIG. 13 is a graph showing hEPO levels (pg/mL) in CD-1 mice up to ˜25 h after administration of a nanoparticle composition containing compounds of the disclosure, compared to a composition containing MC3. Numbers 1-13 refer to compositions containing the following: 1: Compound 73, 2: Compound 80, 3: Compound 70; 4: Compound 81; 5: Compound 69; 6: Compound 82; 7: Compound 83; 8: Compound 62; 9: Compound 84; 10: Compound 85; 11: Compound 86; 12: Compound 87; 13: MC3. […]
# [2] = test system: Luc expression; test: Luc expression in CD-1 mice (AUC relative to MC3); conditions: for Lipid/MC3 AUC CD-1 mice 0.5 mpk: Table 7b, Luc expression; for Liver/Spleen Ratio / Lipid/MC3 AUC: Table 7c; for Lipid/MC3 AUC: AUC relative to MC3; for Lipid/MC3 Luc CD-1 (mice): Luc expression relative to MC3, CD-1 mice
# Procedure: FIG. 15 is a graph summarizing luciferase expression levels at 6 h after administration of nanoparticle compositions containing compounds of the disclosure to CD-1 mice at a dose of 0.5 mpk. Total light flux values were acquired via body luminescent imaging (BLI) 6 h after administration. In this Figure, the numbers 1-7 and 10 refer to the compositions containing Compounds 4-10 and MC3 respectively.
# In contrast, hEPO expression in rats induced by administration of a nanoparticle composition including a compound according to one of formulae (I), (Ia1)-(Ia6), (Ib), (II), (IIa), (III), and (IIIa) was substantially […] than that measured for MC3. […] Table 7c and 7d show additional protein expressions and clearance data from compositions with various compounds disclosed herein as compared to with MC3.
# [3] = test system: LDLr−/− mice; test: Expression in LDLr−/− mice (LDLr dependence); conditions: Table 7b
Compound,Lipid/MC3 AUC [1],Lipid/MC3 AUC CD-1 mice 0.5 mpk [2],"Lipid/KL22 AUC LDLr−/− mice 0.5 mpk, LDLr [3]",other results
"CCCCCCCCCN(CCCCCCCCC)CCC1CCN(C(=O)CN(CCCCCCCCC)CCN(CCCCCCCCC)CCCCCCCCC)C1 (stereo not shown) [Compound 69, 2-((2-(Dinonylamino)ethyl)(nonyl)amino)-1-(3-(2-(dinonylamino)ethyl)pyrrolidin-1-yl)ethan-1-one]",6.52,,,
"CCCCCCCCCCCCN(CCCCCCCCCCCC)CCN(CCCCCCCCC)CC(=O)N1CCN(C(=O)CN(CCCCCCCCC)CCCCCCCCC)CC1 [Compound 6, 2-((2-(Didodecylamino)ethyl)(nonyl)amino)-1-(4-(dinonylglycyl)piperazin-1-yl)ethan-1-one]",,1.72,0.37,
"CCCCCCCCCCCCN(CCCCCCCCCCCC)CC(=O)N1CCN(C(=O)CN(CCCCCCCCC)CCN(CCCCCCCCC)CCCCCCCCC)CC1 [Compound 8, 2-(Didodecylamino)-1-(4-(N-(2-(dinonylamino)ethyl)-N-nonylglycyl)piperazin-1-yl)ethan-1-one]",,2.33,3.74,
"CCCCCCCCCN(CCCCCCCCC)CCN(CCCCCCCCC)CC(=O)N1CCN(C(=O)CN(CCCCCCCCC)CCCCCCCCC)CC1 [Compound 4, 2-(Dinonylamino)-1-(4-(N-(2-(dinonylamino)ethyl)-N-nonylglycyl)piperazin-1-yl)ethan-1-one]",,3.70,2.03,
"CCCCCCCCCN(CCCC(=O)OCCCCC)CCC1CCCN(C(=O)CN(CCCCCCCCC)CCN(CCCCCCCCC)CCCCCCCCC)C1 (stereo not shown) [Compound 80, Pentyl 4-((2-(1-(N-(2-(dinonylamino)ethyl)-N-nonylglycyl)piperidin-3-yl)ethyl)(nonyl)amino)butanoate]",1.74,,,
"CCCCCCCCCN(CCCC(=O)OCCCCC)CCCC1CCN(C(=O)CCN(CCCCCCCCC)CCN(CCCCCCCCC)CCCCCCCCC)CC1 [Compound 84, Pentyl 4-((3-(1-(3-((2-(dinonylamino)ethyl)(nonyl)amino)propanoyl)piperidin-4-yl)propyl)(nonyl)amino)butanoate]",1.43,,,
"CCCCCCCCCN(CCCOC(=O)CCCCC)CCCC1CCN(C(=O)CCN(CCCCCCCCC)CCN(CCCCCCCCC)CCCCCCCCC)CC1 [Compound 87, 3-((3-(1-(3-((2-(Dinonylamino)ethyl)(nonyl)amino)propanoyl)piperidin-4-yl)propyl)(nonyl)amino)propyl Hexanoate]",0.80,,,
"CCCCCCCCCN(CCCC(=O)OCCCCC)CCC1CCN(C(=O)CN(CCCCCCCCC)CCN(CCCCCCCCC)CCCCCCCCC)C1 (stereo not shown) [Compound 81, Pentyl 4-((2-(1-(N-(2-(dinonylamino)ethyl)-N-nonylglycyl)pyrrolidin-3-yl)ethyl)(nonyl)amino)butanoate]",3.01,,,
"CCCCCCCCCN(CCCCCCCCC)CCC1CCCN(C(=O)CN(CCCCCCCCC)CCN(CCCCCCCCC)CCCCCCCCC)C1 (stereo not shown) [Compound 73, 2-((2-(Dinonylamino)ethyl)(nonyl)amino)-1-(3-(2-(dinonylamino)ethyl)piperidin-1-yl)ethan-1-one]",3.93,,,
"CCCCCCCCCCCCN(CCN(CCCCCCCCC)CCCCCCCCC)CC(=O)N1CCN(C(=O)CN(CCCCCCCCC)CCCCCCCCC)CC1 [Compound 5, 2-(Dinonylamino)-1-(4-(N-(2-(dinonylamino)ethyl)-N-dodecylglycyl)piperazin-1-yl)ethan-1-one]",,2.62,1.86,
"CCCCCCCCCN(CCCCCCCCC)CCN(CCCCCCCCC)CC(=O)N1CCC(CN(CCCCCCCCC)CCCCCCCCC)C1 (stereo not shown) [Compound 70, 2-((2-(Dinonylamino)ethyl)(nonyl)amino)-1-(3-((dinonylamino)methyl)pyrrolidin-1-yl)ethan-1-one]",1.77,,,
"CCCCCCCCCN(CCCC(=O)OCCCCC)CCC1CCN(C(=O)CN(CCCCCCCCC)CCN(CCCCCCCCC)CCCCCCCCC)CC1 [Compound 83, Pentyl 4-((2-(1-(N-(2-(dinonylamino)ethyl)-N-nonylglycyl)piperidin-4-yl)ethyl)(nonyl)amino)butanoate]",1.46,,,
"CCCCCCCCCN(CCCCCCCCC)CCN(CCCCCCCCC)CC(=O)N1CCC(CN(CCCCCCCCC)CCCC(=O)OCCCCC)C1 (stereo not shown) [Compound 82, Pentyl 4-(((1-(N-(2-(dinonylamino)ethyl)-N-nonylglycyl)pyrrolidin-3-yl)methyl)(nonyl)amino)butanoate]",3.62,,,
"CCCCCCCCCCCCN(CCCCCCCCCCCC)CC(=O)N1CCN(C(=O)CN(CCCCCCCCCCCC)CCN(CCCCCCCCC)CCCCCCCCC)CC1 [Compound 9, 2-(Didodecylamino)-1-(4-(N-(2-(dinonylamino)ethyl)-N-dodecylglycyl)piperazin-1-yl)ethan-1-one]",,0.73,0.58,
"CCCCCCCCCCCCN(CCCCCCCCCCCC)CCN(CCCCCCCCCCCC)CC(=O)N1CCN(C(=O)CN(CCCCCCCCC)CCCCCCCCC)CC1 [Compound 7, 2-((2-(Didodecylamino)ethyl)(dodecyl)amino)-1-(4-(dinonylglycyl)piperazin-1-yl)ethan-1-one]",,1.51,2.46,
"CCCCCCCCCN(CCCOC(=O)CCCCC)CCC(=O)N1CCN(C(=O)CCN(CCCCCCCCC)CCN(CCCCCCCCC)CCCCCCCCC)CC1 [Compound 86, 3-((3-(4-(3-((2-(Dinonylamino)ethyl)(nonyl)amino)propanoyl)piperazin-1-yl)-3-oxopropyl)(nonyl)amino)propyl Hexanoate]",0.49,,,
"CCCCCCCCCCCCN(CCCCCCCCCCCC)CCN(CCCCCCCCC)CC(=O)N1CCN(C(=O)CN(CCCCCCCCCCCC)CCCCCCCCCCCC)CC1 [Compound 10, 2-(Didodecylamino)-1-(4-(N-(2-(didodecylamino)ethyl)-N-nonylglycyl)piperazin-1-yl)ethan-1-one]",,1.14,0.71,
"CCCCCCCCCN(CCCC(=O)OCCCCC)CCC(=O)N1CCN(C(=O)CCN(CCCCCCCCC)CCN(CCCCCCCCC)CCCCCCCCC)CC1 [Compound 62, Pentyl 4-((3-(4-(3-((2-(dinonylamino)ethyl)(nonyl)amino)propanoyl)piperazin-1-yl)-3-oxopropyl)(nonyl)amino)butanoate]",0.97,,,
"CCCCCCCCCN(CCCCC(=O)OCCCC)CCC1CCN(C(=O)CN(CCCCCCCCC)CCN(CCCCCCCCC)CCCCCCCCC)CC1 [Compound 60, Butyl 5-((2-(1-(N-(2-(dinonylamino)ethyl)-N-nonylglycyl)piperidin-4-yl)ethyl)(nonyl)amino)pentanoate]",,,,Liver/Spleen Ratio [2]: 15; Lipid/MC3 AUC [2]: 2.00
"CCCCCCCCCN(CCCCCCCCC)CCCC1CCN(C(=O)CCN(CCCCCCCCC)CCN(CCCCCCCCC)CCCCCCCCC)CC1 [Compound 85, 3-((2-(Dinonylamino)ethyl)(nonyl)amino)-1-(4-(3-(dinonylamino)propyl)piperidin-1-yl)propan-1-one]",3.54,,,
"CCCCCCCCCN(CCCCCCCCC)CCN(CCCCCCCCC)CC(=O)N1CC2CC1CN2C(=O)CN(CCCCCCCCC)CCCCCCCCC (stereo not shown) [Compound 42, 2-(Dinonylamino)-1-(5-(N-(2-(dinonylamino)ethyl)-N-nonylglycyl)-2,5-diazabicyclo[2.2.1]heptan-2-yl)ethan-1-one]",,,,Lipid/MC3 Luc CD-1 (mice) [2]: 3.99
"CCCCCCCCCN(CCCCCCC(=O)OCC)CCC1CCN(C(=O)CN(CCCCCCCCC)CCN(CCCCCCCCC)CCCCCCCCC)CC1 [Compound 58, Ethyl 7-((2-(1-(N-(2-(dinonylamino)ethyl)-N-nonylglycyl)piperidin-4-yl)ethyl)(nonyl)amino)heptanoate]",,,,Liver/Spleen Ratio [2]: 11; Lipid/MC3 AUC [2]: 0.97
"CCCCCCCCCN(CCCCCCCCC)CCN(CCCCCCCCC)CC(=O)N1CCN(C(=O)CN(CCCCCCCCC)CCCCCC(=O)OCCC)CC1 [Compound 54, Propyl 6-((2-(4-(N-(2-(dinonylamino)ethyl)-N-nonylglycyl)piperazin-1-yl)-2-oxoethyl)(nonyl)amino)hexanoate]",,,,Liver/Spleen Ratio [2]: 32; Lipid/MC3 AUC [2]: 0.13
"CCCCCC=CCC=CCCCCCCCCC(CCCCCCCCC=CCC=CCCCCC)OC(=O)CCCN(C)C (stereo not shown) [MC3, heptatriaconta-6,9,28,31-tetraen-19-yl 4-(dimethylamino)butanoate, reference compound]",,1,0.15,Lipid/MC3 Luc CD-1 (mice) [2]: 1; Liver/Spleen Ratio [2]: 55
